Source: patent US7385023B1, “Cancer immunotherapy and diagnosis using cytochrome P450 1B1” (Trustees of Boston University, priority 2000, dated 2008)

System: CD40-activated B cells (CD40-B)

Row | Structure (SMILES) | lysis of CD40-activated B cells (express CYP1B1, unpulsed) by peptide-specific CTL
1 | CC(C)C[C@H](NC(=O)[C@@H](N)Cc1c[nH]c2ccccc12)C(=O)N[C@@H](CCC(N)=O)C(=O)N[C@@H](Cc1ccc(O)cc1)C(=O)N[C@@H](Cc1ccccc1)C(=O)N1CCC[C@H]1C(=O)N[C@@H](CC(N)=O)C(=O)N1CCC[C@H]1C(=O)N[C@H](C(=O)O)C(C)C [CYP246] (H-WLQYFPNPV-OH; N-terminus and C-terminus assumed) | not lysed
2 | CSCC[C@H](NC(=O)[C@@H](NC(=O)[C@H](CC(=O)O)NC(=O)[C@@H](NC(=O)[C@H](CC(C)C)NC(=O)[C@@H](N)CO)C(C)C)C(C)C)C(=O)N1CCC[C@H]1C(=O)N[C@@H](Cc1c[nH]c2ccccc12)C(=O)N[C@@H](CC(C)C)C(=O)O [CYP239] (H-SLVDVMPWL-OH) | not lysed

Peptide text beside a SMILES is read from it.
